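All cell lines were grown in 96-well plates and treated with compound for 48 hours. The concentration for 50% growth inhibition is given as GI50. TGI marks complete inhibition of growth.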
test system: NCI-H322M lung; assay: DTP human tumour cell line panel, 48 h

First: CCCCCc1ccc(S(=O)(=O)N(C(C)=O)c2cccc(-c3csc(N(CCN4CCN(C)CC4)C(C)=O)n3)c2)cc1
Second: CCCCCc1ccc(S(=O)(=O)Nc2cc(-c3csc(NC(=O)CN4CCN(C)CC4)n3)ccc2OC)cc1
The GI50 of the first is 2.5-fold higher: 3.24 µM for the first, 1.28 µM for the second.

`COc1ccc(-c2nc3cc(Cl)c(Cl)cc3n2CC(=O)N=Nc2c(O)[nH]c3ccc(Cl)cc23)cc1` showed a GI50 of 1.75 µM.

First: CCCCCc1ccc(S(=O)(=O)N(C(C)=O)c2cccc(-c3csc(N(CCN4CCN(C)CC4)C(C)=O)n3)c2)cc1
Second: CCCCCc1ccc(S(=O)(=O)Nc2cc(-c3csc(NC(=O)CN4CCN(C)CC4)n3)ccc2OC)cc1
The TGI of the first is 1.6-fold higher: 6.46 µM for the first, 3.96 µM for the second.

Compound `COc1ccc(-c2nc3cc(Cl)c(Cl)cc3n2CC(=O)N=Nc2c(O)[nH]c3ccc(Cl)cc23)cc1` has a TGI of 3.63 µM.

— PubChem BioAssay (NCI)
